For 19 molecules, enrichment score results are on record in the supplement of paper PMC10369915.

This is one part of the list. Cut-off read from the data, not from the text of the source: active = 3.2 or more and inactive = the rest. Only a few entries rise above the background.
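Note: displayed peptides selected on beads carrying the immobilized SH2 domain, with library peptides lacking any tyrosine serving as negative controls.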

The first assay addresses SHP2 C-SH2 domain E139D. The assay is described as follows: enrichment score (SH2-bound / input frequency) (ratio); bacterial display of known human phosphotyrosine sites (pTyr-Var adds point mutants) read by sequencing; higher = stronger binding; tyrosines were phosphorylated by kinases first. Conditions: peptide library: pTyr-Var.
Regarding KVVQEYERVII [NPHS2_Y131], the enrichment score was inactive: 0.896.
On to SRDDFYETIAM [NPY1R_Y347_D346Y_YF], for which the enrichment score is inactive: 0.745.
In the case of KNKLNYTLPQD [NRAP_Y523], the enrichment score was inactive: 0.706.
In the case of DAICFYRMENA [NPHS2_Y195_YF], the enrichment score was inactive: 0.939.
On the same count and under the same terms, in the case of DAVCYYRMENA [NPHS2_Y195_I192V] it was inactive: 0.913; in that of DVMDFYKTLRG [NR3C1_Y30], inactive: 0.802; in that of IDAICYYRMEN [NPHS2_Y194], inactive: 1.04.
Consider EAEPFYCSLRD [NPHS1_Y1139_R1140C_YF], for which the enrichment score is inactive: 0.698.
For the molecule SRDDYYETIAM [NPY1R_Y347_D346Y], the enrichment score was inactive: 0.854.
As to RLEKEYFDQHF [NPC1_Y394], the enrichment score was inactive: 1.11.
On to LSIDRYHAIVF [NPSR1_Y147_YF], for which the enrichment score was inactive: 0.837.
With LGIDRYHAIVF [NPSR1_Y147_S143G_YF], the enrichment score was inactive: 0.593.
The same measure, in the same setting: the figure for DAVCFYRMENA [NPHS2_Y195_I192V_YF] is inactive: 0.909; for PVKSEYPSIKL [NPC2_Y119] it is inactive: 0.857; for AFEQQYSPIPK [NOX1_Y373_R378K] it is inactive: 0.647.
Take TEAEPYYCSLR [NPHS1_Y1138_R1140C]: the enrichment score was inactive: 0.634.
For LGIDRYHAIVY [NPSR1_Y147_S143G], the enrichment score was inactive: 0.789.
With TEAEPYFCSLR [NPHS1_Y1138_R1140C_YF], the enrichment score is inactive: 0.847.
For EAEPYYRSLRD [NPHS1_Y1139], the enrichment score is inactive: 0.585.

A further assay concerns the target SHP2 C-SH2 domain wild-type. Described as above. To be noted: peptide library: pTyr-Var.
Take KVVQEYERVII [NPHS2_Y131]: the enrichment score is inactive: 0.796.
In the case of SRDDFYETIAM [NPY1R_Y347_D346Y_YF], the enrichment score was inactive: 0.764.
Turning to KNKLNYTLPQD [NRAP_Y523], the enrichment score was inactive: 0.805.
For the molecule DAICFYRMENA [NPHS2_Y195_YF], the enrichment score is inactive: 1.45.
On to DAVCYYRMENA [NPHS2_Y195_I192V], for which the enrichment score is inactive: 1.29.
Turning to DVMDFYKTLRG [NR3C1_Y30], the enrichment score is inactive: 0.706.
Take IDAICYYRMEN [NPHS2_Y194]: the enrichment score is inactive: 1.28.
Regarding EAEPFYCSLRD [NPHS1_Y1139_R1140C_YF], the enrichment score is inactive: 0.809.
Turning to SRDDYYETIAM [NPY1R_Y347_D346Y], the enrichment score was inactive: 0.721.
As for RLEKEYFDQHF [NPC1_Y394], the enrichment score is inactive: 0.929.
For the molecule LSIDRYHAIVF [NPSR1_Y147_YF], the enrichment score is inactive: 0.691.
On to LGIDRYHAIVF [NPSR1_Y147_S143G_YF], for which the enrichment score was inactive: 0.6.
With DAVCFYRMENA [NPHS2_Y195_I192V_YF], the enrichment score was inactive: 1.15.
For the molecule PVKSEYPSIKL [NPC2_Y119], the enrichment score was inactive: 0.897.
As to AFEQQYSPIPK [NOX1_Y373_R378K], the enrichment score was inactive: 0.516.
As to TEAEPYYCSLR [NPHS1_Y1138_R1140C], the enrichment score was inactive: 0.938.
Same read-out and setting: in the case of LGIDRYHAIVY [NPSR1_Y147_S143G] it was inactive: 0.753; in that of TEAEPYFCSLR [NPHS1_Y1138_R1140C_YF], inactive: 0.861.
In the case of EAEPYYRSLRD [NPHS1_Y1139], the enrichment score is inactive: 0.49.

In a further assay the target is SHP2 N-SH2 domain L43F. Described as above. Conditions: peptide library: pTyr-Var.
With KVVQEYERVII [NPHS2_Y131], the enrichment score was inactive: 0.814.
In the case of SRDDFYETIAM [NPY1R_Y347_D346Y_YF], the enrichment score was inactive: 0.687.
Consider KNKLNYTLPQD [NRAP_Y523], for which the enrichment score is inactive: 0.742.
Take DAICFYRMENA [NPHS2_Y195_YF]: the enrichment score was inactive: 1.05.
The same measure, in the same setting: in the case of DAVCYYRMENA [NPHS2_Y195_I192V] it was inactive: 0.916; in that of DVMDFYKTLRG [NR3C1_Y30], inactive: 0.642; in that of IDAICYYRMEN [NPHS2_Y194], inactive: 1.1.
For the molecule EAEPFYCSLRD [NPHS1_Y1139_R1140C_YF], the enrichment score is inactive: 0.588.
Turning to SRDDYYETIAM [NPY1R_Y347_D346Y], the enrichment score was inactive: 0.818.
As for RLEKEYFDQHF [NPC1_Y394], the enrichment score was inactive: 0.969.
Take LSIDRYHAIVF [NPSR1_Y147_YF]: the enrichment score was inactive: 0.664.
Regarding LGIDRYHAIVF [NPSR1_Y147_S143G_YF], the enrichment score was inactive: 0.75.
As for DAVCFYRMENA [NPHS2_Y195_I192V_YF], the enrichment score was inactive: 0.825.
For PVKSEYPSIKL [NPC2_Y119], the enrichment score is inactive: 1.02.
AFEQQYSPIPK [NOX1_Y373_R378K]: the enrichment score was inactive: 0.929.
In the case of TEAEPYYCSLR [NPHS1_Y1138_R1140C], the enrichment score is inactive: 0.827.
LGIDRYHAIVY [NPSR1_Y147_S143G]: the enrichment score was inactive: 0.673.
Same read-out and setting: in the case of TEAEPYFCSLR [NPHS1_Y1138_R1140C_YF] it was inactive: 0.82; in that of EAEPYYRSLRD [NPHS1_Y1139], inactive: 0.546.

In a further assay the target is SHP2 N-SH2 domain T42A. Described as above. To be noted: peptide library: pTyr-Var.
For the molecule KVVQEYERVII [NPHS2_Y131], the enrichment score was inactive: 0.643.
Same read-out and setting: in the case of SRDDFYETIAM [NPY1R_Y347_D346Y_YF] it was inactive: 0.703.
Still for that read-out and setting: in the case of KNKLNYTLPQD [NRAP_Y523] it was inactive: 0.767; in that of DAICFYRMENA [NPHS2_Y195_YF], inactive: 0.963; in that of DAVCYYRMENA [NPHS2_Y195_I192V], inactive: 0.93.
For the molecule DVMDFYKTLRG [NR3C1_Y30], the enrichment score is inactive: 0.497.
Consider IDAICYYRMEN [NPHS2_Y194], for which the enrichment score was inactive: 0.854.
On the same count and under the same terms, the figure for EAEPFYCSLRD [NPHS1_Y1139_R1140C_YF] is inactive: 0.668.
On the same count and under the same terms, in the case of SRDDYYETIAM [NPY1R_Y347_D346Y] it was inactive: 0.628; in that of RLEKEYFDQHF [NPC1_Y394], inactive: 0.902.
Turning to LSIDRYHAIVF [NPSR1_Y147_YF], the enrichment score is inactive: 0.941.
As to LGIDRYHAIVF [NPSR1_Y147_S143G_YF], the enrichment score is inactive: 0.52.
DAVCFYRMENA [NPHS2_Y195_I192V_YF]: the enrichment score is inactive: 0.691.
As for PVKSEYPSIKL [NPC2_Y119], the enrichment score is inactive: 1.22.
Turning to AFEQQYSPIPK [NOX1_Y373_R378K], the enrichment score was inactive: 0.662.
In the case of TEAEPYYCSLR [NPHS1_Y1138_R1140C], the enrichment score was inactive: 0.644.
As to LGIDRYHAIVY [NPSR1_Y147_S143G], the enrichment score is inactive: 0.799.
The same measure, in the same setting: the figure for TEAEPYFCSLR [NPHS1_Y1138_R1140C_YF] is inactive: 0.712; for EAEPYYRSLRD [NPHS1_Y1139] it is inactive: 0.551.

A further assay has as its target SHP2 N-SH2 domain T52S. Described as above. Conditions: peptide library: pTyr-Var.
Take KVVQEYERVII [NPHS2_Y131]: the enrichment score was inactive: 0.929.
For the molecule SRDDFYETIAM [NPY1R_Y347_D346Y_YF], the enrichment score is inactive: 0.796.
Regarding KNKLNYTLPQD [NRAP_Y523], the enrichment score is inactive: 0.876.
For DAICFYRMENA [NPHS2_Y195_YF], the enrichment score was inactive: 0.981.
As for DAVCYYRMENA [NPHS2_Y195_I192V], the enrichment score was inactive: 0.857.
On to DVMDFYKTLRG [NR3C1_Y30], for which the enrichment score is inactive: 0.742.
For the molecule IDAICYYRMEN [NPHS2_Y194], the enrichment score is inactive: 0.851.
In the case of EAEPFYCSLRD [NPHS1_Y1139_R1140C_YF], the enrichment score is inactive: 0.66.
On to SRDDYYETIAM [NPY1R_Y347_D346Y], for which the enrichment score was inactive: 0.508.
With RLEKEYFDQHF [NPC1_Y394], the enrichment score was inactive: 0.859.
On to LSIDRYHAIVF [NPSR1_Y147_YF], for which the enrichment score is inactive: 0.689.
Still for that read-out and setting: the figure for LGIDRYHAIVF [NPSR1_Y147_S143G_YF] is inactive: 0.676.
Turning to DAVCFYRMENA [NPHS2_Y195_I192V_YF], the enrichment score was inactive: 0.787.
Same read-out and setting: in the case of PVKSEYPSIKL [NPC2_Y119] it was inactive: 0.855; in that of AFEQQYSPIPK [NOX1_Y373_R378K], inactive: 0.638.
With TEAEPYYCSLR [NPHS1_Y1138_R1140C], the enrichment score was inactive: 0.845.
For LGIDRYHAIVY [NPSR1_Y147_S143G], the enrichment score is inactive: 0.684.
Same read-out and setting: in the case of TEAEPYFCSLR [NPHS1_Y1138_R1140C_YF] it was inactive: 0.569; in that of EAEPYYRSLRD [NPHS1_Y1139], inactive: 0.596.

The target in a further assay is SHP2 N-SH2 domain wild-type. The description is as above. To be noted: peptide library: pTyr-Var.
KVVQEYERVII [NPHS2_Y131]: the enrichment score is inactive: 0.909.
Turning to SRDDFYETIAM [NPY1R_Y347_D346Y_YF], the enrichment score was inactive: 0.812.
Take KNKLNYTLPQD [NRAP_Y523]: the enrichment score is inactive: 0.807.
For DAICFYRMENA [NPHS2_Y195_YF], the enrichment score is inactive: 1.22.
Turning to DAVCYYRMENA [NPHS2_Y195_I192V], the enrichment score is inactive: 1.33.
Still for that read-out and setting: the figure for DVMDFYKTLRG [NR3C1_Y30] is inactive: 0.75.
As for IDAICYYRMEN [NPHS2_Y194], the enrichment score is inactive: 1.49.
On to EAEPFYCSLRD [NPHS1_Y1139_R1140C_YF], for which the enrichment score was inactive: 0.998.
Regarding SRDDYYETIAM [NPY1R_Y347_D346Y], the enrichment score is inactive: 0.75.
On the same count and under the same terms, in the case of RLEKEYFDQHF [NPC1_Y394] it was inactive: 1.18; in that of LSIDRYHAIVF [NPSR1_Y147_YF], inactive: 0.912; in that of LGIDRYHAIVF [NPSR1_Y147_S143G_YF], inactive: 0.838.
Consider DAVCFYRMENA [NPHS2_Y195_I192V_YF], for which the enrichment score is inactive: 1.16.
As to PVKSEYPSIKL [NPC2_Y119], the enrichment score is inactive: 1.13.
Consider AFEQQYSPIPK [NOX1_Y373_R378K], for which the enrichment score is inactive: 0.646.
For TEAEPYYCSLR [NPHS1_Y1138_R1140C], the enrichment score is inactive: 0.944.
For the molecule LGIDRYHAIVY [NPSR1_Y147_S143G], the enrichment score is inactive: 0.841.
Turning to TEAEPYFCSLR [NPHS1_Y1138_R1140C_YF], the enrichment score was inactive: 0.945.
On the same count and under the same terms, in the case of EAEPYYRSLRD [NPHS1_Y1139] it was inactive: 0.79.
